# The list shows a part of the results. Sequences were assembled here from the parent chain. Inactive controls read about 0.05.
# B1: TEV protease; numbered along this chain (parent)
# chain: MGESLFKGPRDYNPISSSICHLTNESDGHTTSLYGIGFGPFIITNKHLFRRNNGTLVVQSLHGVFKVKDTTTLQQHLVDGRDMIIIRMPKDFPPFPQKLKFREPQREERICLVTTNFQTKSMSSMVSDTSCTFPSGDGIFWKHWIQTKDGQCGSPLVSTRDGFIVGIHSASNFTNTNNYFTSVPKNFMELLTNQEAQQWVSGWRLNADSVLWGGHKVFMVKPEEPFQPVKEATQL
# Variants of: B1
# Assay: raw area under fraction-flipped curve 0-4 h after induction (AUC4h, not background-subtracted), DNA-recorder readout of cleavage of the substrate (dimensionless); higher = more cleavage of the substrate by the protease variant
# Conditions: temperature: 34 °C; time window: 0-4 h after rhamnose induction
# Experimental: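 In vivo DNA recorder in E. coli TOP10(DE3) ΔrhaA at 34 °C. Each TEVp single-site mutant (parent TEVp 0) is paired with a single-site variant of the 7-mer TEVs (canonical ENLYFQ|S). The substrate sits between flexible linkers in a Bxb1-sfGFP-TEVs-SsrA fusion, so cleavage stabilises Bxb1 and speeds flipping of a recombination array, read by NGS. The value is the raw area under the fraction-flipped curve over 0-4 h after rhamnose induction (AUC4h), with ≥20 reads per time point. It is not background-subtracted; inactive controls average about 0.047.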
# 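Also: Bxb1 expression induced with 0.2% (w/v) L-rhamnose at OD600 near 0.5, cultures sampled hourly, flipped fraction per protease–substrate barcode pair counted by paired-end Illumina sequencing.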
Variant,area with substrate EALYFQS,area with substrate ECLYFQS,area with substrate EFLYFQS,area with substrate EILYFQS,area with substrate EKLYFQS,area with substrate ELLYFQS,area with substrate EMLYFQS,area with substrate EQLYFQS,area with substrate ERLYFQS,area with substrate ESLYFQS,area with substrate EVLYFQS,area with substrate EWLYFQS,area with substrate EYLYFQS,area with substrate EDLYFQS,area with substrate EELYFQS,area with substrate EGLYFQS,area with substrate EPLYFQS,area with substrate ETLYFQS,area with substrate EHLYFQS
MGEFLFKGPRDYNPISSSICHLTNESDGHTTSLYGIGFGPFIITNKHLFRRNNGTLVVQSLHGVFKVKDTTTLQQHLVDGRDMIIIRMPKDFPPFPQKLKFREPQREERICLVTTNFQTKSMSSMVSDTSCTFPSGDGIFWKHWIQTKDGQCGSPLVSTRDGFIVGIHSASNFTNTNNYFTSVPKNFMELLTNQEAQQWVSGWRLNADSVLWGGHKVFMVKPEEPFQPVKEATQL [S4F],0.165,0.104,0.139,0.13,0.209,0.142,0.147,0.162,0.153,0.15,0.128,0.157,0.158,–,–,–,–,–,–
MGESLFKGPRDYNPISSSIKHLTNESDGHTTSLYGIGFGPFIITNKHLFRRNNGTLVVQSLHGVFKVKDTTTLQQHLVDGRDMIIIRMPKDFPPFPQKLKFREPQREERICLVTTNFQTKSMSSMVSDTSCTFPSGDGIFWKHWIQTKDGQCGSPLVSTRDGFIVGIHSASNFTNTNNYFTSVPKNFMELLTNQEAQQWVSGWRLNADSVLWGGHKVFMVKPEEPFQPVKEATQL [C20K],0.0577,0.0698,0.0578,0.0339,0.0364,0.0502,–,–,0.0573,0.0455,–,0.0394,0.0445,0.0513,0.0488,0.029,0.0504,–,–
MGESLFKGPRDYNPISSSIYHLTNESDGHTTSLYGIGFGPFIITNKHLFRRNNGTLVVQSLHGVFKVKDTTTLQQHLVDGRDMIIIRMPKDFPPFPQKLKFREPQREERICLVTTNFQTKSMSSMVSDTSCTFPSGDGIFWKHWIQTKDGQCGSPLVSTRDGFIVGIHSASNFTNTNNYFTSVPKNFMELLTNQEAQQWVSGWRLNADSVLWGGHKVFMVKPEEPFQPVKEATQL [C20Y],0.0781,0.0637,0.0629,0.0524,–,0.0576,0.0632,0.072,0.0422,0.0624,0.0539,–,0.0601,–,0.0807,–,–,0.0709,–
MGESLFKGPRDFNPISSSICHLTNESDGHTTSLYGIGFGPFIITNKHLFRRNNGTLVVQSLHGVFKVKDTTTLQQHLVDGRDMIIIRMPKDFPPFPQKLKFREPQREERICLVTTNFQTKSMSSMVSDTSCTFPSGDGIFWKHWIQTKDGQCGSPLVSTRDGFIVGIHSASNFTNTNNYFTSVPKNFMELLTNQEAQQWVSGWRLNADSVLWGGHKVFMVKPEEPFQPVKEATQL [Y12F],0.108,0.105,–,0.0888,0.132,–,0.106,0.118,0.101,0.109,–,0.106,–,–,0.125,0.109,–,0.0972,0.089
MGESLFNGPRDYNPISSSICHLTNESDGHTTSLYGIGFGPFIITNKHLFRRNNGTLVVQSLHGVFKVKDTTTLQQHLVDGRDMIIIRMPKDFPPFPQKLKFREPQREERICLVTTNFQTKSMSSMVSDTSCTFPSGDGIFWKHWIQTKDGQCGSPLVSTRDGFIVGIHSASNFTNTNNYFTSVPKNFMELLTNQEAQQWVSGWRLNADSVLWGGHKVFMVKPEEPFQPVKEATQL [K7N],0.115,0.0953,–,–,–,0.0465,–,0.117,0.103,0.107,0.145,–,–,–,0.131,–,–,–,0.104
MGESLFKGPRDYNPISYSICHLTNESDGHTTSLYGIGFGPFIITNKHLFRRNNGTLVVQSLHGVFKVKDTTTLQQHLVDGRDMIIIRMPKDFPPFPQKLKFREPQREERICLVTTNFQTKSMSSMVSDTSCTFPSGDGIFWKHWIQTKDGQCGSPLVSTRDGFIVGIHSASNFTNTNNYFTSVPKNFMELLTNQEAQQWVSGWRLNADSVLWGGHKVFMVKPEEPFQPVKEATQL [S17Y],0.119,0.116,0.0829,0.101,0.12,–,0.114,0.117,–,0.103,0.0825,0.0813,0.113,0.114,0.106,0.105,0.113,0.0971,–
MGESLFKGPRDYNPVSSSICHLTNESDGHTTSLYGIGFGPFIITNKHLFRRNNGTLVVQSLHGVFKVKDTTTLQQHLVDGRDMIIIRMPKDFPPFPQKLKFREPQREERICLVTTNFQTKSMSSMVSDTSCTFPSGDGIFWKHWIQTKDGQCGSPLVSTRDGFIVGIHSASNFTNTNNYFTSVPKNFMELLTNQEAQQWVSGWRLNADSVLWGGHKVFMVKPEEPFQPVKEATQL [I15V],0.13,0.101,–,0.09,0.112,0.0828,0.118,0.133,0.104,0.112,0.0974,0.0845,0.108,0.121,0.11,–,0.122,–,–
MGESLFKGPRDYNPISSSICHLTNESDGHTTSEYGIGFGPFIITNKHLFRRNNGTLVVQSLHGVFKVKDTTTLQQHLVDGRDMIIIRMPKDFPPFPQKLKFREPQREERICLVTTNFQTKSMSSMVSDTSCTFPSGDGIFWKHWIQTKDGQCGSPLVSTRDGFIVGIHSASNFTNTNNYFTSVPKNFMELLTNQEAQQWVSGWRLNADSVLWGGHKVFMVKPEEPFQPVKEATQL [L33E],0.109,0.0613,–,0.0505,0.0702,0.0403,0.0805,0.0698,0.0677,0.0672,0.0678,0.115,–,0.0791,0.0768,0.0573,0.069,0.0689,0.0718
MGESLFKGPRDYNPISSSICHLTNESDGHTHSLYGIGFGPFIITNKHLFRRNNGTLVVQSLHGVFKVKDTTTLQQHLVDGRDMIIIRMPKDFPPFPQKLKFREPQREERICLVTTNFQTKSMSSMVSDTSCTFPSGDGIFWKHWIQTKDGQCGSPLVSTRDGFIVGIHSASNFTNTNNYFTSVPKNFMELLTNQEAQQWVSGWRLNADSVLWGGHKVFMVKPEEPFQPVKEATQL [T31H],0.0972,0.0827,–,–,0.12,0.0626,0.105,0.105,0.0899,0.0893,0.104,0.0923,–,0.104,0.0949,0.0804,0.136,0.0951,0.092
MGESLFKGPRDYNPISSSICHLTNESDGHTLSLYGIGFGPFIITNKHLFRRNNGTLVVQSLHGVFKVKDTTTLQQHLVDGRDMIIIRMPKDFPPFPQKLKFREPQREERICLVTTNFQTKSMSSMVSDTSCTFPSGDGIFWKHWIQTKDGQCGSPLVSTRDGFIVGIHSASNFTNTNNYFTSVPKNFMELLTNQEAQQWVSGWRLNADSVLWGGHKVFMVKPEEPFQPVKEATQL [T31L],0.124,0.123,–,–,–,0.0756,–,0.156,0.182,0.122,0.114,–,0.111,0.157,0.126,0.122,0.099,–,–
MGESLFKGPRDYNPISSSICHLTNESDGHATSLYGIGFGPFIITNKHLFRRNNGTLVVQSLHGVFKVKDTTTLQQHLVDGRDMIIIRMPKDFPPFPQKLKFREPQREERICLVTTNFQTKSMSSMVSDTSCTFPSGDGIFWKHWIQTKDGQCGSPLVSTRDGFIVGIHSASNFTNTNNYFTSVPKNFMELLTNQEAQQWVSGWRLNADSVLWGGHKVFMVKPEEPFQPVKEATQL [T30A],0.181,0.143,0.101,–,0.109,–,0.111,0.118,0.112,0.103,0.0861,0.117,0.11,0.135,–,–,–,0.114,0.111
MGESLFKGPRDYNVISSSICHLTNESDGHTTSLYGIGFGPFIITNKHLFRRNNGTLVVQSLHGVFKVKDTTTLQQHLVDGRDMIIIRMPKDFPPFPQKLKFREPQREERICLVTTNFQTKSMSSMVSDTSCTFPSGDGIFWKHWIQTKDGQCGSPLVSTRDGFIVGIHSASNFTNTNNYFTSVPKNFMELLTNQEAQQWVSGWRLNADSVLWGGHKVFMVKPEEPFQPVKEATQL [P14V],0.0932,0.0822,0.089,0.1,0.0997,0.0645,0.0916,0.104,0.0862,0.0953,0.0902,0.104,0.0728,–,0.11,0.0994,0.107,0.101,0.0924
MGESLFKGPRDYNQISSSICHLTNESDGHTTSLYGIGFGPFIITNKHLFRRNNGTLVVQSLHGVFKVKDTTTLQQHLVDGRDMIIIRMPKDFPPFPQKLKFREPQREERICLVTTNFQTKSMSSMVSDTSCTFPSGDGIFWKHWIQTKDGQCGSPLVSTRDGFIVGIHSASNFTNTNNYFTSVPKNFMELLTNQEAQQWVSGWRLNADSVLWGGHKVFMVKPEEPFQPVKEATQL [P14Q],0.114,0.0777,–,0.105,0.137,0.0804,0.117,–,0.0917,0.122,0.0802,0.139,0.098,0.157,–,0.115,–,0.137,0.0887
MGESLFKGPRDYNPIPSSICHLTNESDGHTTSLYGIGFGPFIITNKHLFRRNNGTLVVQSLHGVFKVKDTTTLQQHLVDGRDMIIIRMPKDFPPFPQKLKFREPQREERICLVTTNFQTKSMSSMVSDTSCTFPSGDGIFWKHWIQTKDGQCGSPLVSTRDGFIVGIHSASNFTNTNNYFTSVPKNFMELLTNQEAQQWVSGWRLNADSVLWGGHKVFMVKPEEPFQPVKEATQL [S16P],0.122,0.075,0.118,0.0827,0.135,0.106,0.111,0.115,0.0942,0.0951,0.102,–,–,–,0.12,0.0888,0.0848,0.117,–
MGESLFKGPRDYNPISSSICHLTNEMDGHTTSLYGIGFGPFIITNKHLFRRNNGTLVVQSLHGVFKVKDTTTLQQHLVDGRDMIIIRMPKDFPPFPQKLKFREPQREERICLVTTNFQTKSMSSMVSDTSCTFPSGDGIFWKHWIQTKDGQCGSPLVSTRDGFIVGIHSASNFTNTNNYFTSVPKNFMELLTNQEAQQWVSGWRLNADSVLWGGHKVFMVKPEEPFQPVKEATQL [S26M],0.0756,0.102,–,0.0866,0.076,0.0613,0.0925,0.0934,0.0767,0.0831,0.0714,0.0772,–,0.0924,0.0918,–,0.0961,–,–
MGESLFKGPRDYNPISSSICHFTNESDGHTTSLYGIGFGPFIITNKHLFRRNNGTLVVQSLHGVFKVKDTTTLQQHLVDGRDMIIIRMPKDFPPFPQKLKFREPQREERICLVTTNFQTKSMSSMVSDTSCTFPSGDGIFWKHWIQTKDGQCGSPLVSTRDGFIVGIHSASNFTNTNNYFTSVPKNFMELLTNQEAQQWVSGWRLNADSVLWGGHKVFMVKPEEPFQPVKEATQL [L22F],0.0759,0.0617,–,0.0544,0.0546,0.0748,0.073,0.0804,0.0733,0.065,0.0173,0.0583,0.0819,–,0.069,0.0564,0.0794,–,0.0814
MGESLFKGPRDYNPISSSICHLTNESYGHTTSLYGIGFGPFIITNKHLFRRNNGTLVVQSLHGVFKVKDTTTLQQHLVDGRDMIIIRMPKDFPPFPQKLKFREPQREERICLVTTNFQTKSMSSMVSDTSCTFPSGDGIFWKHWIQTKDGQCGSPLVSTRDGFIVGIHSASNFTNTNNYFTSVPKNFMELLTNQEAQQWVSGWRLNADSVLWGGHKVFMVKPEEPFQPVKEATQL [D27Y],0.112,0.0858,0.1,0.0834,0.0809,0.0909,0.09,0.101,0.0876,0.1,0.0863,–,0.0734,0.0938,–,–,0.0902,–,0.0866
MGESLFKGPRDYNPISSSICHLTNESRGHTTSLYGIGFGPFIITNKHLFRRNNGTLVVQSLHGVFKVKDTTTLQQHLVDGRDMIIIRMPKDFPPFPQKLKFREPQREERICLVTTNFQTKSMSSMVSDTSCTFPSGDGIFWKHWIQTKDGQCGSPLVSTRDGFIVGIHSASNFTNTNNYFTSVPKNFMELLTNQEAQQWVSGWRLNADSVLWGGHKVFMVKPEEPFQPVKEATQL [D27R],0.126,0.0698,0.0973,0.09,0.0871,–,–,–,0.0937,–,–,–,0.064,–,–,–,0.0935,–,–

# From the supplement of paper PMC12217912
